This is an account of results in the supplement of paper PMC3334620.

The full ranking holds about 33,000 sequences; the median of “E-score (-0.5 to 0.5)” is about -0.012, and the highest 2% start at about 0.29. The list shows a part of the results.

For this assay, the target named is T1, Ybr033w (UniProt P38073).
T1 sequence: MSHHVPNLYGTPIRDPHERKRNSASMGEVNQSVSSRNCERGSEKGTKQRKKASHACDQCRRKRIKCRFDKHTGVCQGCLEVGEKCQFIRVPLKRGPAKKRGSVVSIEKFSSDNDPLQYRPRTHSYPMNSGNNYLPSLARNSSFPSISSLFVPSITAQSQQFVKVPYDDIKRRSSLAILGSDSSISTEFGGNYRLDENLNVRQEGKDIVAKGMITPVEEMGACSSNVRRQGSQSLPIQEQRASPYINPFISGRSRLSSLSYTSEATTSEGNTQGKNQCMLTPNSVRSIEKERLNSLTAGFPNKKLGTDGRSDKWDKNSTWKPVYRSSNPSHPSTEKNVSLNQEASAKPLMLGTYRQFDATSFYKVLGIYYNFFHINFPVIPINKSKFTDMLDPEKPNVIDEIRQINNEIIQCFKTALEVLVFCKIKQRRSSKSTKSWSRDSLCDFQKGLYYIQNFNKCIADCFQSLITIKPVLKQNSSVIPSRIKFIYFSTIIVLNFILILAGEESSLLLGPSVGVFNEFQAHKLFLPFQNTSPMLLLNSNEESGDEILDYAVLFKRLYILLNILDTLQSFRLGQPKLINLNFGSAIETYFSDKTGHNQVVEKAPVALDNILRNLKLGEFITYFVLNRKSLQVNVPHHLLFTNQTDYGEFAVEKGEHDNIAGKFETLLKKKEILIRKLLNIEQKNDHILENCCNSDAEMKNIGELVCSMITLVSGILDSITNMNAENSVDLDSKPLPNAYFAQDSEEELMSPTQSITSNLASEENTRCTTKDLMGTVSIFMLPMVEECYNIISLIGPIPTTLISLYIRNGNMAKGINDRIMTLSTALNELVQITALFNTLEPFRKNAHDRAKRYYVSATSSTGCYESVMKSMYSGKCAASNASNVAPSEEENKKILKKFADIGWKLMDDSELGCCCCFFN
The assay is described as follows: PBM E-score (8-mer binding enrichment) (E-score (-0.5 to 0.5)); higher = stronger / more preferred TF binding; most listed sequences are background and not binding sites. Particulars: protein concentration: 200 nM; construct: GST-full length. In short, it runs like this:
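For each ungapped eight-base word taken together with its reverse complement, the Universal PBM Analysis Suite assigned an E-score. Binding data came from GST-tagged yeast transcription factors, applied at about 100-200 nM, on universal all-10-mer Agilent arrays made double-stranded by primer extension. Fluorescent anti-GST marked bound protein, and scans were normalised with masliner.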
For AACTTAGT, the “PBM E-score” value came to 0.0819.
In the case of ATCATGTG it was 0.126.
In the case of CGGGATAC it was -0.159; in that of GGCTCCCC, -0.35; in that of ATAATGCG, 0.144.
The same measure for AGTTCCTA: 0.152; for ACAGAAGC: 0.145.
In the case of GCCATGGC, the “PBM E-score” value was -0.238.
The same measure for CTCCCAGA: -0.301; for ATACGAAC: 0.128; for GAGGGGGA: -0.411.
Turning to AGCACCCA, the “PBM E-score” value was -0.238.
The same measure for ACTCTACG: -0.0914; for GAAGGACA: -0.0471.
In the case of ACAGCGTA it was 0.0178; in that of CAATCAAC, 0.151.
In the case of ACTTGTCG it was 0.0162.
In the case of GGAAACCA, the “PBM E-score” value is -0.309.
In the case of GGCCTGAA it was -0.204; in that of AAATGTAA, 0.234.
In the case of AGTTTCTC it was 0.107; in that of GTCGCGCA, -0.146.
On to CTACCCAA, for which the “PBM E-score” value is 0.0675.
With CATGTCCA, the “PBM E-score” value was 0.135.
In the case of CTACAAAG it was 0.0965; in that of GATCAGAA, -0.186.
On to AGTGACAG, for which the “PBM E-score” value came out at 0.153.
In the case of ATACCCCG it was -0.214; in that of AAGGGCAA, -0.0518.
The same measure for CATTCAGC: 0.135; for CAGCTATG: -0.0252; for CATGGACA: -0.0412.
In the case of CAGTCATA it was 0.0931.
Regarding TAGGGCAA, the “PBM E-score” value is -0.022.
Consider GATCGACC, for which the “PBM E-score” value turned out to be 0.0146.
In the case of ACCCGACC it was -0.0863.
The same measure for CCGCTTGA: -0.162; for GCGTGGCA: -0.179.
In the case of AACAGGCG it was -0.15; in that of CAGTGTTA, 0.162.
As to ATAATGTA, the “PBM E-score” value worked out at 0.16.
The same measure for GTTATTCA: 0.21; for ATGCACTA: -0.0286; for AGCGATAT: 0.246.
The same measure for GCCCTCCC: -0.333.
In the case of CCAATTGA it was 0.129; in that of CAAAATAC, 0.217.
With ATCACCTG, the “PBM E-score” value was -0.0393.
The same measure for TAAGTGAA: 0.293; for GGCAAGAC: -0.254.
The same measure for CGCCACCC: -0.128.
With GACCCAAA, the “PBM E-score” value is -0.0192.
In the case of CCTAGATC it was -0.148; in that of GCTAAAGC, -0.0232; in that of ATTATTGG, 0.127.
In the case of ACTCTGCA it was 0.057; in that of CGTACAGC, -0.229; in that of CAGATCGG, -0.116.
The same measure for GCGAGCCA: -0.153.
Turning to ACCATTTC, the “PBM E-score” value came to 0.118.
The same measure for CCCGTAAG: -0.135; for AACCCATC: -0.108; for ATGGACAT: 0.12.
Take CCTCTTTA: the “PBM E-score” value is -0.0818.
The same measure for GTAGTGTA: 0.146.
In the case of CGGTTCAG it was -0.104; in that of CAGAAATG, -0.00635.
On to GGGTGAGA, for which the “PBM E-score” value was -0.224.
The same measure for ACCAAACA: 0.1; for CACCACAG: -0.0521.
The same measure for CCCTGACC: -0.144.
In the case of CGACTCTA it was -0.0745; in that of GAGAGATA, 0.0945.
Consider CCTACAAG, for which the “PBM E-score” value was -0.0823.
In the case of ATGATAGA it was 0.11.
The same measure for ACAGCCCC: -0.258; for CTCCCGAC: -0.195; for AAGGCTTC: -0.0959.
Regarding GCGCAGAC, the “PBM E-score” value stood at 0.12.
In the case of CCTTTCAA it was -0.00501; in that of CCAGAAGA, 0.0748.
The same measure for ACGCGATG: -0.0355; for GTATAGAA: -0.0445.
On to CCATCAGA, for which the “PBM E-score” value was -0.179.
In the case of ACCTCAAC it was -0.00288; in that of CAAAGAAC, 0.184.
For CCCTCAAG, the “PBM E-score” value was -0.186.
With AGGATCAC, the “PBM E-score” value is -0.0786.
Consider CTCGGTGA, for which the “PBM E-score” value was 0.00892.
The same measure for CTGACGTA: -0.108; for ACTGTATA: 0.207.
In the case of CTAGCGTC it was -0.201; in that of AGTGATCG, -0.189.
Turning to ATGAACGG, the “PBM E-score” value was -0.119.
